The values that follow come from the supplement of paper PMC3722116.

Compound in experiment [1]: T1, CCN(CC)CCCC(C)Nc1ccnc2cc(Cl)ccc12 [chloroquine]
The procedure:
(§1)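 Hypoxanthine uptake by fresh isolates, duplicate serial dilutions, 24 h of drug plus 18 h after the label; sigmoid fit per isolate.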

Compound in experiment [2]: T2, C[C@H]1[C@H](OC(=O)CCC(=O)O)O[C@@H]2O[C@@]3(C)CC[C@H]4[C@H](C)CC[C@@H]1[C@@]24OO3 [artesunate]
The procedure:
as §1

Compound in experiment [3]: T3, OC(c1cc(C(F)(F)F)nc2c(C(F)(F)F)cccc12)C1CCCCN1 [mefloquine]
The procedure: as §1

Compound in experiment [4]: T1, chloroquine
Nature of the experiment: slope of the dose-response curve (dimensionless); higher = steeper concentration-effect curve. The protocol: as §1

Compound in experiment [5]: T2, artesunate
The description is as above. The procedure:
as §1

Compound in experiment [6]: T3, mefloquine
The experiment is described as above. The protocol:
as §1

Growth of fresh clinical P. falciparum isolates by hypoxanthine uptake over 42 h; for most isolates 1.6-1,647 nM mefloquine, 0.044-87 nM artesunate, 10-10,256 nM chloroquine, 2.4-236 nM lumefantrine. EC50, lower = more sensitive; slope from the same fit, higher = steeper. No active / inactive call. Fits with a coefficient of variation above 100% are not listed here; 15-28% of fits exceed 15%. Isolates are numbered anew.

In the case of “Plasmodium falciparum isolate 223 (pfmdr1 allele: 86N, 1042N, pfmdr1 copies: 1)”, the entries for the “EC50 of parasite growth” value with chloroquine [1], with artesunate [2] and with mefloquine [3] were 0.0421 µg/mL, 0.0011 µg/mL and 0.018 µg/mL, respectively. Moreover, the slope with chloroquine [4] stood at 0.925; with artesunate [5], 10; with mefloquine [6], 2.41.
As to “Plasmodium falciparum isolate 160 (pfmdr1 allele: 86N, 1042N, pfmdr1 copies: 1)”, the “EC50 of parasite growth” value in the experiment with chloroquine [1] was 0.165 µg/mL; in the experiment with artesunate [2] it was 0.00131 µg/mL. Further, the slope with chloroquine [4] is 2.72; in the experiment with artesunate [5], 2.01.
Take “Plasmodium falciparum isolate 3 (pfmdr1 allele: 86Y, pfmdr1 copies: 1)”: the entries for the “EC50 of parasite growth” value with chloroquine [1], with artesunate [2] and with mefloquine [3] were 0.137 µg/mL, 0.000597 µg/mL and 0.00905 µg/mL, respectively. The slope was 2.83 with chloroquine [4] and 18.2 in the experiment with artesunate [5].
Regarding “Plasmodium falciparum isolate 430 (pfmdr1 allele: 86N, 1042N, pfmdr1 copies: 1)”, the “EC50 of parasite growth” value is 0.0848 µg/mL with chloroquine [1], 0.00124 µg/mL with artesunate [2] and 0.0204 µg/mL in the experiment with mefloquine [3]. The slope with chloroquine [4] turned out to be 1.35; with artesunate [5], 8.43; in the experiment with mefloquine [6], 1.4.
For the test system “Plasmodium falciparum isolate 429 (pfmdr1 allele: 86N, 1042N, pfmdr1 copies: 2)”, the results for the “EC50 of parasite growth” value with chloroquine [1], in the experiment with artesunate [2] and with mefloquine [3] were 0.0944 µg/mL, 0.00549 µg/mL and 0.0634 µg/mL, respectively. Also, the slope with chloroquine [4] worked out at 2.16; in the experiment with artesunate [5], 3.92; with mefloquine [6], 4.62.
With “Plasmodium falciparum isolate 226 (pfmdr1 allele: 86N, 1042N, pfmdr1 copies: 3)”, the “EC50 of parasite growth” value with chloroquine [1] is 0.0773 µg/mL; in the experiment with artesunate [2] it was 0.00165 µg/mL; with mefloquine [3] it was 0.125 µg/mL. Besides, the slope is 1.99 with chloroquine [4], 4.28 in the experiment with artesunate [5] and 2 with mefloquine [6].
Regarding “Plasmodium falciparum isolate 345 (pfmdr1 allele: 86N, 1042N, pfmdr1 copies: 3)”, the “EC50 of parasite growth” value with chloroquine [1] was 0.105 µg/mL; with artesunate [2], 0.0183 µg/mL; in the experiment with mefloquine [3], 0.108 µg/mL. Also, the slope was determined as 5.05 in the experiment with chloroquine [4], 4.21 in the experiment with artesunate [5] and 3.14 with mefloquine [6].
For “Plasmodium falciparum isolate 104 (pfmdr1 allele: 86N, 1042N, pfmdr1 copies: 1)”, the entries for the “EC50 of parasite growth” value with chloroquine [1], in the experiment with artesunate [2] and in the experiment with mefloquine [3] were 0.0803 µg/mL, 0.00123 µg/mL and 0.0113 µg/mL, respectively. The slope in the experiment with chloroquine [4] was 2.14; with artesunate [5], 2.35; in the experiment with mefloquine [6], 2.42.
In the case of “Plasmodium falciparum isolate 417 (pfmdr1 allele: 86N, 1042N, pfmdr1 copies: 1)”, the “EC50 of parasite growth” value with chloroquine [1] stood at 0.108 µg/mL; with artesunate [2] it was 0.00102 µg/mL; with mefloquine [3], 0.0461 µg/mL. Further, the slope was 2.11 with chloroquine [4], 3.65 with artesunate [5] and 2.71 with mefloquine [6].
Take “Plasmodium falciparum isolate 128 (pfmdr1 allele: 86N, 1042N, pfmdr1 copies: 2)”: the entries for the “EC50 of parasite growth” value with chloroquine [1] and with artesunate [2] were 0.684 µg/mL and 0.00335 µg/mL, respectively. Besides, the slope with chloroquine [4] came to 9.79; with artesunate [5], 9.98.
Regarding “Plasmodium falciparum isolate 124 (pfmdr1 allele: 86N, 1042N, pfmdr1 copies: 2)”, the “EC50 of parasite growth” value with chloroquine [1] was found to be 0.0912 µg/mL; with artesunate [2], 0.00121 µg/mL; with mefloquine [3] it was 0.0559 µg/mL. Besides, the results for the slope with chloroquine [4], in the experiment with artesunate [5] and with mefloquine [6] were 3.05, 7.15 and 2.81, respectively.
Turning to “Plasmodium falciparum isolate 316 (pfmdr1 allele: 86N, 1042N, pfmdr1 copies: 1)”, the results for the “EC50 of parasite growth” value with chloroquine [1], in the experiment with artesunate [2] and in the experiment with mefloquine [3] were 0.184 µg/mL, 0.000388 µg/mL and 0.0188 µg/mL, respectively. The slope is 2.1 with chloroquine [4], 5.41 in the experiment with artesunate [5] and 2.71 with mefloquine [6].
In the case of “Plasmodium falciparum isolate 407 (pfmdr1 allele: 86N, 1042N, pfmdr1 copies: 1)”, the entries for the “EC50 of parasite growth” value with chloroquine [1], in the experiment with artesunate [2] and with mefloquine [3] were 0.0715 µg/mL, 0.00154 µg/mL and 0.0152 µg/mL, respectively. Besides, the slope is 4 with chloroquine [4], 2.83 with artesunate [5] and 2.04 with mefloquine [6].
On to “Plasmodium falciparum isolate 280 (pfmdr1 allele: 86N, 1042N, pfmdr1 copies: 2)”, for which the “EC50 of parasite growth” value is 0.594 µg/mL with chloroquine [1] and 0.000503 µg/mL with artesunate [2]. Further, the slope with chloroquine [4] is 3.37; with artesunate [5] it was 4.34.
As for “Plasmodium falciparum isolate 121 (pfmdr1 allele: 86N, 1042N, pfmdr1 copies: 2)”, the “EC50 of parasite growth” value came out at 0.148 µg/mL in the experiment with chloroquine [1], 0.00297 µg/mL in the experiment with artesunate [2] and 0.036 µg/mL with mefloquine [3]. The slope with chloroquine [4] was determined as 3.31; with artesunate [5], 5.25; in the experiment with mefloquine [6], 3.13.
Turning to “Plasmodium falciparum isolate 1 (pfmdr1 allele: 86N, 1042N, pfmdr1 copies: 3)”, the “EC50 of parasite growth” value with chloroquine [1] was found to be 0.0589 µg/mL; in the experiment with artesunate [2], 0.00244 µg/mL; with mefloquine [3], 0.0317 µg/mL. The slope in the experiment with chloroquine [4] worked out at 4.64; with artesunate [5], 1.64; in the experiment with mefloquine [6], 3.12.
Regarding “Plasmodium falciparum isolate 23 (pfmdr1 allele: 86N, 1042N, pfmdr1 copies: 1)”, the entries for the “EC50 of parasite growth” value with chloroquine [1], in the experiment with artesunate [2] and with mefloquine [3] were 0.0801 µg/mL, 0.000728 µg/mL and 0.0157 µg/mL, respectively. Moreover, the slope with chloroquine [4] was determined as 2.93; with artesunate [5], 5.46; with mefloquine [6] it was 3.8.
With “Plasmodium falciparum isolate 108 (pfmdr1 allele: 86N, 1042N, pfmdr1 copies: 2)”, the entries for the “EC50 of parasite growth” value in the experiment with chloroquine [1], in the experiment with artesunate [2] and with mefloquine [3] were 0.11 µg/mL, 0.00337 µg/mL and 0.074 µg/mL, respectively. The slope with chloroquine [4] amounted to 4.21; in the experiment with artesunate [5] it was 10; with mefloquine [6], 4.27.
On to “Plasmodium falciparum isolate 86 (pfmdr1 allele: 86N, 1042N, pfmdr1 copies: 4)”, for which the figures for the “EC50 of parasite growth” value in the experiment with chloroquine [1], with artesunate [2] and in the experiment with mefloquine [3] were 0.047 µg/mL, 0.000199 µg/mL and 0.029 µg/mL, respectively. Besides, the slope in the experiment with chloroquine [4] was determined as 2.73; with artesunate [5] it was 3.95; in the experiment with mefloquine [6] it was 2.56.
Take “Plasmodium falciparum isolate 201 (pfmdr1 allele: 86Y, pfmdr1 copies: 1)”: the “EC50 of parasite growth” value was 0.217 µg/mL with chloroquine [1], 0.00075 µg/mL with artesunate [2] and 0.0184 µg/mL with mefloquine [3]. For the same test system, the slope with chloroquine [4] was found to be 1.99; with artesunate [5], 1.66; with mefloquine [6], 1.26.
As for “Plasmodium falciparum isolate 231 (pfmdr1 allele: 86N, 1042N, pfmdr1 copies: 1)”, the “EC50 of parasite growth” value is 0.0339 µg/mL in the experiment with chloroquine [1], 0.000852 µg/mL in the experiment with artesunate [2] and 0.0216 µg/mL with mefloquine [3]. In addition, the figures for the slope with chloroquine [4], with artesunate [5] and with mefloquine [6] were 1.77, 3.36 and 2.04, respectively.
“Plasmodium falciparum isolate 456 (pfmdr1 allele: 86N, 1042N, pfmdr1 copies: 2)”: the “EC50 of parasite growth” value with chloroquine [1] was 0.352 µg/mL; with artesunate [2], 0.00407 µg/mL; in the experiment with mefloquine [3], 0.0698 µg/mL. The slope in the experiment with chloroquine [4] came to 6.7; in the experiment with artesunate [5], 10; with mefloquine [6], 2.36.
Regarding “Plasmodium falciparum isolate 457 (pfmdr1 allele: 86N, 1042N, pfmdr1 copies: 2)”, the “EC50 of parasite growth” value in the experiment with chloroquine [1] stood at 0.354 µg/mL; with artesunate [2] it was 0.001 µg/mL; in the experiment with mefloquine [3] it was 0.0593 µg/mL. The slope with chloroquine [4] was 9.44; with artesunate [5], 10; with mefloquine [6], 2.18.
